Binding signal data for 22 molecules are collected here from publication PMC12136788.

To fix the notation:
T1: UNK ZnF1-3 (human, UniProt Q9C0B0 31-174)
T1 sequence: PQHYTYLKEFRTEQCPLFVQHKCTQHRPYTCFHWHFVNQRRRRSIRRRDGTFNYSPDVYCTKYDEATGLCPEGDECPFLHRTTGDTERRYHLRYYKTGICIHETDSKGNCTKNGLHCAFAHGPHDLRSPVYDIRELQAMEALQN

B1: chr1:163117072:163117073:-_ENSG00000143248_ENST00000313961|hu_hu|FALSE|FALSE (ssRNA)
RNA: GGGAGUUCUACAGUCCGACGAUCGGAAAUGCAGGGUUAUUAUGGAGGAAAUAACUCACAGGAUGAUUUCAUAGCCUGGCUAAAUUACUACUUGAUUAACUCCUGAUAAAACUCAGAGCGCACAAAGCGAGGCAGAGAAUCCUUCAACAGAGGAUUGAGCAUCA
B2: chr1:60041781:60041782:+_ENSMUSG00000041040_ENSMUST00000036540|mus_hu|mus_mus_mus_hu_False|38_98 (ssRNA)
RNA: GGGAGUUCUACAGUCCGACGAUCAAGUUUACAAUAGCUCAACUUUAGCAGUAGUGGCAAAUUUUCUUUUAUUUUCCUUCACAAAAGAAAAUCUUUAGAUCUCAGUUCUAGUCUUGGACAUAGUGAAAGCUAUAAAUUCUGACUCAACAGAGGAUUGAGCAUCA
B3: chr18:34472677:34472678:+_ENSMUSG00000005871_ENSMUST00000115781|mus_mus|FALSE|FALSE (ssRNA)
RNA: GGGAGUUCUACAGUCCGACGAUCUGCACUGUGUAUCUUAUGGGCUAGGUCAGCUGGAUACUGACCAUAACUGCAAAAUUUACUUUCAUCAUCUUCAGAAUAGGAUUCAACUGAGGGUUUCAUUUGGCCUCUUUUACCAUAUCCCAACAGAGGAUUGAGCAUCA
B4: 73047273_73096420_338_5pUTR_ENSG00000163605_ENST00000295862|human|control|control (ssRNA)
RNA: GGGAGUUCUACAGUCCGACGAUCGGCUCAGGAGCUGAAGUUCUGAAAUCAUCCAUCACUUUCUCCAGUUUGAAAAUAAAAUAGCCUUUAAAUUGGGACCACUGAAUCAUUGUUUCUCCAGUCUUGGCUACAUGACAAAGAAACCAACAGAGGAUUGAGCAUCA
B5: chr1:196642912:196642913:+_ENSMUSG00000026640_ENSMUST00000027952|mus_hu|FALSE|FALSE (ssRNA)
RNA: GGGAGUUCUACAGUCCGACGAUCAGGUACACAAUAAUAUAUUAGAAUAACAAAAAACCCCACUUUAUUGGAACAUUUUAAAUACUUAAUUUUCUUACAGUUUUUAUUCCACAACACCUGUAAAAACAACAAAACCAGACAACCCAACAGAGGAUUGAGCAUCA
B6: chr15:80414081:80414082:+_ENSG00000086666_ENST00000558494|hu_hu|motif|central (ssRNA)
RNA: GGGAGUUCUACAGUCCGACGAUCUGGUAAAGAUUCAGACAGACUACUGACAGAGGUUGCAGGUGGGCUUAUUCUACCAUUACGGCGGUUCUGUCUUUGAAGAUGUUCUUUAUAGCAUACUGAACACAUGCCAUUUGUACGAGGCAACAGAGGAUUGAGCAUCA
B7: chr1:89340274:89340275:+_ENSMUSG00000048000_ENSMUST00000174671|mus_hu|FALSE|FALSE (ssRNA)
RNA: GGGAGUUCUACAGUCCGACGAUCUUUGGCACGGCGCUCAAGGAACUGCUUGGCAAACUCCUUGGCCUCAGAAGUAUCUCCUAAAUAGGCCCUGAUAUAAUCAUGGACCUCAUAAGGAGAUUCUACUUCUUUCAGGAAAGAAACCAACAGAGGAUUGAGCAUCA
B8: chr12:39763582:39763583:-_ENSG00000139116_ENST00000544797|hu_mus|hu_hu_hu_mus_False|1_78 (ssRNA)
RNA: GGGAGUUCUACAGUCCGACGAUCCUCUAGGAACUGGGCAUUCACUUUGAAUUCAGGAGCAGGAAGCCCGUUUUUAAUCGCUGAGGUCUUUUUCUCAUCAAUACUCUUGAACAGGUGUCUAACAGCACGAGAGAUGAUACCCAGCAACAGAGGAUUGAGCAUCA
B9: chr19:47151266:47151267:-_ENSG00000197380_ENST00000391916|hu_mus|FALSE|FALSE (ssRNA)
RNA: GGGAGUUCUACAGUCCGACGAUCACUCUGUAGGCAUAACCUGAGUCAGACAGUCUCUGACUUGGGGGCCCCAGGGGGUAUCCUAAGGGUCCAGGGACAUGGAGGGGGCACUUUGUGAAUGAGAAGGGGACCCUAUCUGGGCAACAACAGAGGAUUGAGCAUCA
B10: chr2:109738910:109738911:+_ENSMUSG00000027162_ENSMUST00000028583|mus_mus|FALSE|FALSE (ssRNA)
RNA: GGGAGUUCUACAGUCCGACGAUCUCUGAAAACUGCAGUAAUCUUGUAAGACUCACAAUGCUCACACCAUGCAGAAAAACAUACACACUUCCAUUCUUCCUGAAGGAAUGUUACAAAAUGCCCAUUUUUUAAAAAUAAAGGUAACAACAGAGGAUUGAGCAUCA
B11: 60974930_60976415_833_CDS_ENSMUSG00000042506_ENSMUST00000041683|mouse|control|control (ssRNA)
RNA: GGGAGUUCUACAGUCCGACGAUCUGGAAUGUGUGGGGAGCGGUGCCCUGAGUAAAACUCCUGGAAGAGAGAGGACAUCUCACAGACCAAGCAGGAGCUGGGGCUCUGCAUCUCACAGCGGUGCCUAUCCGACAGAAAGAAGUCCAACAGAGGAUUGAGCAUCA
B12: chr6:134305517:134305518:+_ENSG00000028839_ENST00000367871|hu_hu|motif|central (ssRNA)
RNA: GGGAGUUCUACAGUCCGACGAUCGUUACACACUGCCAGAACGUUAACAACCUUAAAAUCUGUAAAUAUUACCUGAAAACCGGGUUUCUGCAGACUACGGGCUAAGCGUCUGGCACCAAAUUUAGCUUCUUCUUCACUUGUUGCCAACAGAGGAUUGAGCAUCA
B13: chr9:14812383:14812384:-_ENSMUSG00000031934_ENSMUST00000164273|mus_mus|mus_mus_mus_hu_True|68_78 (ssRNA)
RNA: GGGAGUUCUACAGUCCGACGAUCAUAGCCCAGGUAGAUACACGCUAACAGUAUAAUCACAAAUGUCACCAGCCGGCAGCUAAUGUACUUGAUGAUUAAAUUAUUAGAAUUUUUCUUUGUCUUCAAGUACUGCUCCACAAUUGGCAACAGAGGAUUGAGCAUCA
B14: chr6:53387275:53387276:-_ENSG00000001084_ENST00000229416|hu_hu|FALSE|FALSE (ssRNA)
RNA: GGGAGUUCUACAGUCCGACGAUCUGUCCUUUCCCCCUUCUCUUGCAGAGUUUCAAGAACUUUCUCCCCAGACAGGACCAACCGGACUUUUUUAUUUUCAUGAUCAAAAGAUACCAACAUGUAUUCCACCUCAUCGCCCCACUUCAACAGAGGAUUGAGCAUCA
B15: chr3:52014989:52014990:+_ENSG00000248487_ENST00000273596|hu_mus|FALSE|FALSE (ssRNA)
RNA: GGGAGUUCUACAGUCCGACGAUCAGGUGAGUCCACUCAAGGCAAAUGGUCAAGGAAGGCAAGAAGGGCGAGGUGGAAGGCUUCUGGCUUGUGGAGGUAGCAGGCAUGACCUGCAUCAUGCAGCUUCACCACAGAGUGGUUGGGCAACAGAGGAUUGAGCAUCA
B16: chr10:88199856:88199857:+_ENSMUSG00000060904_ENSMUST00000116234|mus_hu|FALSE|FALSE (ssRNA)
RNA: GGGAGUUCUACAGUCCGACGAUCUGCAUCUGUGUUUGAAUAGUAACAUCUCCAGUAUGGCCUGAUACUUGUCUGUCCUCCUAAAUCCCAGACUUGGAAUUUAAGGUUUUUGUACGUCACCGUCUCUACAUUAAAUCCAAUGGUCAACAGAGGAUUGAGCAUCA
B17: chr2:183853844:183853845:-_ENSG00000061676_ENST00000360982|hu_mus|motif|central (ssRNA)
RNA: GGGAGUUCUACAGUCCGACGAUCGUGAAUGUGGAAAACUUCAUCCCGAAAGAGAGAGAGGCAAGAGCUACUCUGAAGAGCGGGCUUCCAAAGGUUCAGUGCGGUAGCCUCCGUAUUUAGCAUCCCAUGGCACAGAAUAAAGCCCAACAGAGGAUUGAGCAUCA
B18: chr21:34922442:34922443:+_ENSG00000159140_ENST00000381679|hu_mus|motif|central (ssRNA)
RNA: GGGAGUUCUACAGUCCGACGAUCCUCAGUAGGUGUCUCUGACACUAUCGUGAGGGUUUCUGAUGGCUCAACCACUUUUGCGGUGGGAAGCUCUACCAGCGUGGUCUUUGACGUCUCUGGAGGCAUAGUCUCCAAAGAUUUCAGCAACAGAGGAUUGAGCAUCA
B19: chr11:116399779:116399780:-_ENSMUSG00000020802_ENSMUST00000082152|mus_mus|FALSE|FALSE (ssRNA)
RNA: GGGAGUUCUACAGUCCGACGAUCAGGGCUGCAGCCUCUCCUGGUGUCCUAUCCUCUCUUAGAGAGUAAGUUCAAUAGGCCUAAGGGCUAUAACGCACUGGCAGGCCAGAGCCAGCCACAGCAGCCACAGCUCCGAGAUGGAGGCAACAGAGGAUUGAGCAUCA
B20: chr3:103141349:103141350:+_ENSMUSG00000033014_ENSMUST00000106860|mus_mus|motif|central (ssRNA)
RNA: GGGAGUUCUACAGUCCGACGAUCACUUGUAGGCUGAGGGGGUAGAUGACUGCCUGAGAUAUAUCUACUCAGUAGAUUAUCGGAACGGCUUGAGCCAGCAUCUUCCAACUGUAUAGGUGGGAUAUCUGGCAACGAUGGAAGGUUCAACAGAGGAUUGAGCAUCA
B21: chr4:76721835:76721836:+_ENSG00000138768_ENST00000264904|hu_mus|hu_hu_hu_mus_True|88_108 (ssRNA)
RNA: GGGAGUUCUACAGUCCGACGAUCGUUGGCUGGGGUUUUCUGAGACGUCUGGAAUACUAACUCAUGUUUGCUAAUAAAUCCUAGUUUCUCUAUGAAAUUCUCUUUGCCAAUCCUCUUCUCUAUUAGUUGCUUUAGUUUCUCUUUCAACAGAGGAUUGAGCAUCA
B22: 46230419_46230624_985_CDS_ENSG00000189079_ENST00000334344|human|control|control (ssRNA)
RNA: GGGAGUUCUACAGUCCGACGAUCCACUGCAAUCUGAAGUACCCGCUGUCCUUCAAUAUCGUUAAUGCCCAGCUUUCGAGGUGGAUGAAAUAAAGACUCCCAAAUCCAUUCUCCUGAUGUACCUUCAUGAGACUUGUUUCUGUCCAACAGAGGAUUGAGCAUCA

This is one part of the list.

This experiment concerns the target T1, UNK ZnF1-3. Description: nsRBNS (natural sequence RNA bind-n-seq); RBNS binding buffer (assumed for nsRBNS): 25 mM Tris pH 7.5, 150 mM KCl, 3 mM MgCl2, 0.01% Triton X-100, 500 ug/ml BSA, 20 U/ml SUPERase-In, 4 C; UNK is unkempt and MSI1 is Musashi-1; names of the RNAs are library labels; protein concentration not given here; high values mean tight binding.
In the case of B1, the binding signal turned out to be 1.76 enrichment R.
On to B2, for which the binding signal stood at 0.379 enrichment R.
Take B3: the binding signal worked out at 0.614 enrichment R.
Take B4: the binding signal stood at 1.25 enrichment R.
B5 yielded a binding signal of 2.21 enrichment R.
The same measure for B6: 0.998 enrichment R; for B7: 0.658 enrichment R; for B8: 1.18 enrichment R.
The same measure for B9: 1.16 enrichment R; for B10: 1.31 enrichment R; for B11: 0.829 enrichment R.
The molecule B12 registered a binding signal of 0.735 enrichment R.
The same measure for B13: 1.19 enrichment R; for B14: 1.41 enrichment R; for B15: 1.89 enrichment R.
The same measure for B16: 0.714 enrichment R; for B17: 1.85 enrichment R; for B18: 0.351 enrichment R.
In the case of B19 it was 0.806 enrichment R; in that of B20, 1.02 enrichment R; in that of B21, 0.428 enrichment R.
The molecule B22 came in with a binding signal of 0.859 enrichment R.
